We go through 48 molecules from PubChem BioAssay AID1508624 (National Center for Advancing Translational Sciences (NCATS), 2021).

The structures appear in SMILES notation. The campaign covered roughly 48,000 compounds. About 120 (0.25%) were called active. Not shown: some 4% with an inconclusive outcome. Calls come from the whole dose curve; as a rule, active = well fitted activation curve with a large enough effect; inconclusive = small, poorly fitted or top-dose-only effect, or another doubt; inactive = no such curve, though single readings can be large or run the other way. Some of the results follow.

The assay is described as follows: Primary qHTS for Identification of Small Molecule Activators of Huntingtin-Antisense Promoter Activity. Note: nearly all actives have a fitted effect of over 55% in size. Conditions: HEK293 HTT-AS promoter firefly luciferase reporter (activity 0% = vehicle and -100% = no light), 24 h; series mostly up to 57.5 µM; activity change, positive = activation: at the top concentration. The method in brief: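 Quantitative HTS used concentration series of up to 57.5 uM final on HEK293 luciferase reporter cells, 24 h at 37 degrees C. Readout was Dual-Glo firefly luminescence.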
A general note: qHTS replaces the single test concentration by a dilution series.
Consider `COc1cccc(-c2nc(SCC(=O)Nc3ccc4c(c3)OCCO4)c(-c3ccc(C)cc3)[nH]2)c1`, for which the “activity change, positive = activation” value was inactive: -30%.

Turning to `COc1ccc(Cl)cc1NC(=O)c1cc(S(=O)(=O)N(C)Cc2ccccc2)ccc1F`, the “activity change, positive = activation” value was inactive: -2.77%.

With `CCOC(=O)c1cnc2c(C)cccc2c1Nc1ccc(OC(C)C)cc1`, the “activity change, positive = activation” value is inactive: -18.5%.

As to `Cc1ccc(C)c(N2CCN(c3nc4ccc(C(=O)c5ccccc5)cc4n4cnnc34)CC2)c1`, the “activity change, positive = activation” value was inactive: -0.965%.

Take `CCOc1ccccc1OCCNC(C)Cc1ccc(OC)c(S(N)(=O)=O)c1` (stereo not drawn): the “activity change, positive = activation” value was inactive: -6.23%.

As to `Cc1cccc(OCCCn2c(CCNC(=O)C3CCCCC3)nc3ccccc32)c1`, the “activity change, positive = activation” value was inactive: -32.1%.

For the molecule `COc1ccccc1CN(Cc1c(Cl)cccc1Cl)S(=O)(=O)c1ccc(Br)cc1`, the “activity change, positive = activation” value is inactive: 2.23%.

As for `Cn1c(=O)[nH]c(=O)c2c1nc(CN1CCN(c3ccccc3F)CC1)n2Cc1ccc(F)cc1`, the “activity change, positive = activation” value is inactive: -20.7%.

In the case of `COc1cc(C2Nc3ccccc3-c3nnc(SCc4ccc(C)cc4)nc3O2)cc(OC)c1O` (stereo not drawn), the “activity change, positive = activation” value is inactive: -46.5%.

Take `CCc1nn(CC(=O)NCCCc2ccccc2)c(=O)c2cc3ccccc3n12`: the “activity change, positive = activation” value is inactive: -6.36%.

Consider `Cc1c(Cl)cccc1NC(=O)Cn1c(=O)n(Cc2nc(-c3ccccc3)no2)c(=O)c2cc3c(cc21)OCO3`, for which the “activity change, positive = activation” value was inactive: -12.6%.

With `CCCC(=O)Nc1cccc(-c2cn3c(C)csc3n2)c1`, the “activity change, positive = activation” value was inactive: 9.41%.

In the case of `Cc1c(Cl)cccc1NC(=O)C1CCN(c2nc3ccccc3[nH]2)CC1`, the “activity change, positive = activation” value was inactive: -15.8%.

`Cc1ccc(Nc2cc(C)c(C#N)c3nc4ccccc4n23)c(C)c1`: the “activity change, positive = activation” value is inactive: -13.1%.

On to `COC(=O)c1sccc1S(=O)(=O)N(CC(=O)Nc1ccccc1)c1ccccc1`, for which the “activity change, positive = activation” value is inactive: -7.09%.

Consider `CCc1ccc(CNC(=O)c2cnc3c(C)cccn3c2=O)cc1`, for which the “activity change, positive = activation” value is inactive: -3.93%.

Consider `Cc1ccc2oc(=O)n(CCNC(=O)Nc3ccc(Cl)cc3)c2c1`, for which the “activity change, positive = activation” value was inactive: -18.5%.

Turning to `Cc1cc(C(=O)NCc2ccccc2Cl)c2c(C)nn(-c3cccc(F)c3)c2n1`, the “activity change, positive = activation” value is inactive: -23.8%.

In the case of `O=C(NCC(c1ccco1)S(=O)(=O)c1cccs1)c1ccc(Cl)cc1` (stereo not drawn), the “activity change, positive = activation” value is inactive: 0.821%.

Take `CCCN(C(=O)Nc1cn(CC(C)C)c(=O)c2ccccc12)c1ccc(F)cc1`: the “activity change, positive = activation” value was inactive: -25.4%.

For `Cc1ccc(C(=O)Nc2ccc3oc(-c4ccccc4C)nc3c2)cc1`, the “activity change, positive = activation” value was inactive: -3.92%.

In the case of `CCCCNC(=O)c1ccc2c(c1)NC(=O)C(CS(=O)(=O)Cc1ccc(C)cc1)N2` (stereo not drawn), the “activity change, positive = activation” value was inactive: -11.1%.

In the case of `CC(=O)N1CCc2c(sc3c2c(=O)n(-c2ccc(C)cc2)c(=O)n3Cc2ccccc2C)C1`, the “activity change, positive = activation” value was inactive: -36.5%.

In the case of `CC(C)C(=O)OCc1cc(=O)n2nc(C3CC3)sc2n1`, the “activity change, positive = activation” value was inactive: 25.6%.

Turning to `Cc1cc(NC(=O)c2cccn2-c2nnc(N3CCCCC3)s2)ccc1Br`, the “activity change, positive = activation” value is inactive: -18.9%.

As for `Cc1cccc(C)c1NC(=O)CN1CCCCCC1`, the “activity change, positive = activation” value is inactive: -1.49%.

Take `CCN1CCN(c2oc(/C=C/c3cc(OC)c(OC)c(OC)c3)nc2C#N)CC1`: the “activity change, positive = activation” value was inactive: -16.5%.

For `CCc1ccc(C2c3c(oc4cc(C)c(C)cc4c3=O)C(=O)N2c2nc(C)c(C(=O)OC)s2)cc1` (stereo not drawn), the “activity change, positive = activation” value is inactive: 1.18%.

As for `Cc1cc(C)cc(NC(=O)CSc2nc3sc4c(c3c(=O)[nH]2)CCCC4)c1`, the “activity change, positive = activation” value is inactive: -3.25%.

On to `CCC1CN(C(=O)Nc2cc(Cl)c(OC)cc2OC)c2ccccc2O1` (stereo not drawn), for which the “activity change, positive = activation” value is inactive: -20.1%.

As for `COc1ccc(-c2noc(CC(=O)Nc3ccc(C)c(F)c3)n2)cc1`, the “activity change, positive = activation” value is inactive: -4.75%.

Take `COc1cc(OC)c(C2C(C(=O)Nc3ccccc3)=C(C)Nc3ncnn32)cc1OC` (stereo not drawn): the “activity change, positive = activation” value was inactive: 0.195%.

For the molecule `CCCCC1CCC(C(=O)N2CC(=O)Nc3ccc(Br)cc3C2c2ccc(F)cc2)CC1` (stereo not drawn), the “activity change, positive = activation” value was inactive: -20.3%.

`COC(=O)COc1ccc(-c2nnc(Nc3ccc(O)cc3)c3ccccc23)cc1`: the “activity change, positive = activation” value was inactive: -34.1%.

Consider `CCc1ccc(S(=O)(=O)c2nnn3c2nc(N2CCN(c4ccccc4)CC2)c2cc(Cl)ccc23)cc1`, for which the “activity change, positive = activation” value is inactive: 20.6%.

For the molecule `Cc1cccc2c1-c1sc(C(=O)Nc3ccc(F)cc3F)cc1CO2`, the “activity change, positive = activation” value is inactive: -2.83%.

In the case of `CCN(CC)C(=O)Cn1c(=O)n(CCCCCC(=O)NCc2ccc3c(c2)OCO3)c(=O)c2sccc21`, the “activity change, positive = activation” value is inactive: -22.6%.

Regarding `CCC(=O)OCc1cc(=O)n2nc(C3CC3)sc2n1`, the “activity change, positive = activation” value was inactive: 12.6%.

For `Cc1ccc(CNC(=O)c2ccc(N3CCCC3)c(NC(=O)Nc3ccc(C)cc3)c2)cc1`, the “activity change, positive = activation” value is inactive: 3.43%.

Turning to `Cc1ccc(CNC(=O)C(=O)Nc2c3c(nn2-c2ccc(F)cc2)CSC3)cc1`, the “activity change, positive = activation” value was inactive: -14.3%.

`Cc1ccc(NC(=O)CN2C(=O)COc3ccc(S(=O)(=O)N4CCCCCC4)cc32)c(C)c1`: the “activity change, positive = activation” value was inactive: -12.9%.

In the case of `CCCc1cc(=O)oc2c3c(ccc12)OCN(Cc1ccccc1OC)C3`, the “activity change, positive = activation” value was inactive: -7.03%.

For `CN(C(=O)Cn1nc(Cc2cccnc2)c2ccccc2c1=O)c1cccc(C(F)(F)F)c1`, the “activity change, positive = activation” value is inactive: -14.3%.

For the molecule `CCOc1ccc(N(C)C(=O)c2oc(=O)c3ccccc3c2-c2ccccc2)cc1`, the “activity change, positive = activation” value is inactive: -38.1%.

As for `CCc1ccc(-c2nc(CS(=O)CC(=O)NCCc3ccc(C)cc3)c(C)o2)cc1` (stereo not drawn), the “activity change, positive = activation” value was inactive: -11.8%.

Turning to `CC(C)c1cnc2c(c1SCC(=O)NC(C)(C)C)c(=O)n(C)c(=O)n2C`, the “activity change, positive = activation” value was inactive: -1.93%.

As for `CCn1cc2c(n1)-c1c(oc(C(=O)Nc3ccc(Br)cc3F)c1C)CC2`, the “activity change, positive = activation” value is inactive: 16.8%.

As for `O=C(O)CC1c2ccccc2CCN1C(=O)Nc1cc(Cl)ccc1Cl` (stereo not drawn), the “activity change, positive = activation” value was inactive: -8.73%.
